# Results published in the supplement of paper PMC4604168 (melanoma cell lines).
# The other results are listed elsewhere or left out. Most values come without repeats; read them as rough.
# What was measured:
# Assay in all cases: cell count relative to DMSO control; melanoma cells; higher = more viable cells
# Settings in all cases: library dose: low library concentration; 72 h
# MZ2-MEL = system: MZ2-MEL
# MeWo = system: MeWo
# RPMI7951 = system: RPMI7951
# RVH-421 = system: RVH-421
# SkMel28 = system: SkMel28
# SkMel2 = system: SkMel2
# SkMel30 = system: SkMel30
# SkMel5 = system: SkMel5
# UACC257 = system: UACC257
# UACC62 = system: UACC62
# 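Note: cell number obtained by counting DAPI-stained nuclei in high-throughput microscope images with image analysis software, screen run in 1,536-well plates.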
Compound,cell count (MZ2-MEL) [%],cell count (MeWo) [%],cell count (RPMI7951) [%],cell count (RVH-421) [%],cell count (SkMel28) [%],cell count (SkMel2) [%],cell count (SkMel30) [%],cell count (SkMel5) [%],cell count (UACC257) [%],cell count (UACC62) [%]
"CC(=O)O[C@@]12CO[C@@H]1C[C@H](O)[C@@]1(C)C(=O)[C@H](O)C3=C(C)[C@@H](OC(=O)[C@H](O)[C@@H](NC(=O)OC(C)(C)C)c4ccccc4)C[C@@](O)([C@@H](OC(=O)c4ccccc4)[C@H]21)C3(C)C [Docetaxel] + Oc1nc(-c2ccc(C(F)(F)F)cc2)nc2c1CSCC2 [XAV939] (first compound 0.0001 µM, partner dose 2 µM)",44.3,42.2,34,70,45.8,37.5,30.1,71.9,50.7,37.2
"Nc1ccn([C@@H]2O[C@H](CO)[C@@H](O)C2(F)F)c(=O)n1 [gemcitabine] + Cc1cc(N2CCOCC2)cc2[nH]c(-c3c(NC[C@@H](O)c4cccc(Cl)c4)cc[nH]c3=O)nc12 [BMS536924] (first compound 0.0004 µM, partner dose 0.2 µM)",108,96.9,115,112,102,88.8,115,98.8,71.9,99.4
"Nc1ncn([C@H]2C[C@H](O)[C@@H](CO)O2)c(=O)n1 [decitabine] + O=C(CCCCCCC(=O)Nc1ccccc1)NO [vorinostat] (first compound 0.1 µM, partner dose 0.08 µM)",88.2,99.4,87.8,101,85.5,94.2,89.5,105,84,70.6
"Nc1ncn([C@H]2C[C@H](O)[C@@H](CO)O2)c(=O)n1 [decitabine] + O=S(=O)(c1ccccc1)N(CC(F)(F)F)c1ccc(C(O)(C(F)(F)F)C(F)(F)F)cc1 [T0901317] (first compound 0.1 µM, partner dose 1.4 µM)",84.4,102,98.1,88.5,82.7,104,99.4,77.8,113,80.2
"Nc1ccn([C@@H]2O[C@H](CO)[C@@H](O)C2(F)F)c(=O)n1 [gemcitabine] + N#Cc1c(O)c2c(-c3ccc(-c4ccccc4O)cc3)csc2[nH]c1=O [A769662] (first compound 0.0004 µM, partner dose 2 µM)",93.6,103,91.2,91.6,92.8,99.9,109,116,103,107
"Nc1ccn([C@@H]2O[C@H](CO)[C@@H](O)C2(F)F)c(=O)n1 [gemcitabine] + C[C@@H]1CCN(C(=O)CC#N)C[C@@H]1N(C)c1ncnc2[nH]ccc12 [CP690550] (first compound 0.0004 µM, partner dose 1 µM)",106,101,93.6,97.1,106,96.2,113,98.8,105,92.9
"Nc1nc(F)nc2c1ncn2[C@@H]1O[C@H](CO)[C@@H](O)[C@@H]1O [fludarabine] + O=C(O)c1ccc(-c2c[nH]c3ncc(-c4ccccc4)cc23)cc1C1CCCC1 [GSK650394] (first compound 0.2 µM, partner dose 0.16 µM)",103,31.3,93,92.3,66.8,5.15,18.3,58.1,93.5,83
"Nc1ccn([C@@H]2O[C@H](CO)[C@@H](O)C2(F)F)c(=O)n1 [gemcitabine] + COc1ccc2c(c1)CCC1C2CCC2(C)C(NCCCCCCN3C(=O)C=CC3=O)CCC12 [U73122] (first compound 0.0004 µM, partner dose 0.4 µM)",97.6,101,82.5,92,117,97.4,93.9,112,98.6,79.5
"Nc1ncn([C@H]2C[C@H](O)[C@@H](CO)O2)c(=O)n1 [decitabine] + COC(=O)c1sccc1S(=O)(=O)Nc1ccc(Nc2ccccc2)cc1OC [GSK0660] (first compound 0.1 µM, partner dose 1 µM)",93.6,88.7,86.1,78.2,65.5,103,92.7,105,106,77.6
"Nc1ccn([C@@H]2O[C@H](CO)[C@@H](O)C2(F)F)c(=O)n1 [gemcitabine] + COc1cc2ncnc(Nc3ccc(Oc4ccccc4)cc3)c2cc1OC [SrcI1] (first compound 0.0004 µM, partner dose 2 µM)",94.5,96.7,128,95.9,76.7,96.2,106,107,111,102
"CC(=O)c1c(C)c2cnc(Nc3ccc(N4CCNCC4)cn3)nc2n(C2CCCC2)c1=O [palbociclib] + COc1cc(N2CCC(N3CCN(C)CC3)CC2)ccc1Nc1ncc(Cl)c(Nc2ccccc2S(=O)(=O)C(C)C)n1 [NVP-TAE684] (first compound 0.04 µM, partner dose 0.08 µM)",86,63.4,59.3,96.2,71.4,76.8,59,72.1,54.5,70.4
"Nc1ccn([C@@H]2O[C@H](CO)[C@@H](O)C2(F)F)c(=O)n1 [gemcitabine] + NCC(=O)Nc1ccc(-n2nc(C(F)(F)F)cc2-c2ccc3c(ccc4ccccc43)c2)cc1 [OSU03012] (first compound 0.0004 µM, partner dose 1 µM)",85.8,55.2,91,73.3,84.7,78.7,57.3,101,96.3,91.9
"Nc1nc(F)nc2c1ncn2[C@@H]1O[C@H](CO)[C@@H](O)[C@@H]1O [fludarabine] + Cn1cncc1[C@@](N)(c1ccc(Cl)cc1)c1ccc2c(c1)c(-c1cccc(Cl)c1)cc(=O)n2C [tipifarnib] (first compound 0.2 µM, partner dose 0.01 µM)",95.3,30.1,84.9,78.7,54.1,6.61,16.2,53.2,52.1,65
"Nc1nc(F)nc2c1ncn2[C@@H]1O[C@H](CO)[C@@H](O)[C@@H]1O [fludarabine] + COc1ccc(-c2ccc3c(N4CCOCC4)nc(N4C[C@@H](C)O[C@@H](C)C4)nc3n2)cc1CO [KU0063794] (first compound 0.2 µM, partner dose 0.02 µM)",113,36.1,86,101,65.3,5.37,17.9,55.3,85.2,87.2
"CC(=O)O[C@@]12CO[C@@H]1C[C@H](O)[C@@]1(C)C(=O)[C@H](O)C3=C(C)[C@@H](OC(=O)[C@H](O)[C@@H](NC(=O)OC(C)(C)C)c4ccccc4)C[C@@](O)([C@@H](OC(=O)c4ccccc4)[C@H]21)C3(C)C [Docetaxel] + O=C(O)C(=O)Nc1sc2c(c1C(=O)O)CCNC2 [TCS401] (first compound 0.0001 µM, partner dose 1.66667 µM)",43.8,51.4,37.1,77.5,56.3,41.1,33.4,87.8,45.1,42.5
"Nc1ccn([C@@H]2O[C@H](CO)[C@@H](O)C2(F)F)c(=O)n1 [gemcitabine] + COC(=O)c1sccc1S(=O)(=O)Nc1ccc(Nc2ccccc2)cc1OC [GSK0660] (first compound 0.0004 µM, partner dose 1 µM)",99.8,102,88,88.7,94.1,106,86.8,98.5,99.4,87.6
"Nc1ccn([C@@H]2O[C@H](CO)[C@@H](O)C2(F)F)c(=O)n1 [gemcitabine] + O=S(=O)(c1ccccc1)N(CC(F)(F)F)c1ccc(C(O)(C(F)(F)F)C(F)(F)F)cc1 [T0901317] (first compound 0.0004 µM, partner dose 1.4 µM)",84,92,87,109,94.1,94.2,91.4,92.3,94.6,102
"Nc1nc(F)nc2c1ncn2[C@@H]1O[C@H](CO)[C@@H](O)[C@@H]1O [fludarabine] + COc1ccc(COc2ccc(Cc3cnc(N)nc3N)cc2OC)cc1 [GW2580] (first compound 0.2 µM, partner dose 1 µM)",86.8,34.7,103,157,77.2,5.76,23,56.5,89.3,92.6
"Nc1ncn([C@H]2C[C@H](O)[C@@H](CO)O2)c(=O)n1 [decitabine] + CCN(CC)CCCCNc1ncc2cc(-c3cc(OC)cc(OC)c3)c(NC(=O)NC(C)(C)C)nc2n1 [PD173074] (first compound 0.1 µM, partner dose 0.1 µM)",91,97.5,70,73.6,83.5,120,91.5,94.9,103,78.9
"CC(=O)c1c(C)c2cnc(Nc3ccc(N4CCNCC4)cn3)nc2n(C2CCCC2)c1=O [palbociclib] + CCN(CC)CCCCNc1ncc2cc(-c3cc(OC)cc(OC)c3)c(NC(=O)NC(C)(C)C)nc2n1 [PD173074] (first compound 0.04 µM, partner dose 0.1 µM)",82.3,81,77.4,74.1,74.1,76.8,74.9,66.8,72.9,75.6
"Nc1ncn([C@H]2C[C@H](O)[C@@H](CO)O2)c(=O)n1 [decitabine] + O=c1cc(-c2cccc3c2Sc2ccccc2S3)oc(N2CCOCC2)c1 [KU55933] (first compound 0.1 µM, partner dose 1 µM)",82,101,75.7,104,85.4,90.6,92.9,106,82.1,61.1
